From PubChem BioAssay AID493208 (National Center for Advancing Translational Sciences (NCATS), 2011)
In all, about 44,000 compounds went through this assay and about 340 (0.77%) were called active. About 5% were inconclusive and are not listed. The call rests on the fitted dose curve; in most records, active means well fitted inhibition curve with a large enough effect; inconclusive means small, poorly fitted or top-dose-only effect; inactive means flat fitted curve, though single readings scatter. Some of the results follow.

Assay: Acumen qHTS Assay for Inhibitors of the mTORC1 Signaling Pathway in MEF (Tsc2-/-, p53-/-) Cells: Sytravon;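 further: plate controls were DMSO for no effect and rapamycin for full effect; nearly all actives have a fitted effect of over 50% in size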
Details: phospho-rpS6 immunofluorescence/PI, 24 h; series mostly up to 38.3 µM; activity change, negative = inhibition: at the top concentration
Outline: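 Compounds act on Tsc2-/-, p53-/- fibroblasts carrying an empty vector for 24 h before fixation and dual staining for phospho-S6 and DNA (propidium iodide). Values are percentages of cells above a rapamycin-defined pS6/PI threshold.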

Activity change, negative = inhibition, inactive:
COc1ccc(-c2cn3nc(N4CCC(C(=O)Nc5ccc(Cl)cc5C)CC4)sc3n2)cc1 0.715%
Cc1oc(-c2ccc(C(=O)NCCc3ccc(Cl)cc3)cc2)nc1CSc1ccccc1 -1.42%
Cc1ccc(-c2nc(SCC(=O)N3CCc4ccccc43)c3c(=O)n(C)c(=O)n(C)c3n2)cc1 2.53%
COCCCNC(=O)c1c(NC(=O)c2cc(=O)c3ccccc3o2)sc2c1CCCC2 -1.97%
Cc1ccc(N2CCN(c3c(CN4CCCC4)c(=O)oc4ccccc34)CC2)c(C)c1 4.15%
Cc1ccc(S(=O)(=O)n2nc(C)c(S(=O)(=O)N3CCC(C)CC3)c2C)cc1 -0.672%
O=C(NCc1ccccc1)c1ccc2c(c1)N(Cc1cccc(Cl)c1)C(=O)c1ccccc1S2(=O)=O -0.126%
CCOC(=O)C1CCC(CN(Cc2c(Cl)cccc2Cl)S(=O)(=O)c2ccc(Cl)cc2)CC1 (centres undefined) 1.02%
CCn1ccc2cc(S(=O)(=O)N3CCC(C(=O)NCc4ccc(OC)cc4)CC3)ccc21 0.983%
Cc1ccc2nc(-c3ccc(Cl)c(NC(=O)c4cccc([N+](=O)[O-])c4C)c3)oc2c1 -1.04%
Cc1ccccc1CN1C(=O)c2ccccc2Sc2ccc(C(=O)OCc3ccco3)cc21 0%
COc1cc(/C=C/c2nc3cc(Cl)ccc3c(=O)n2-c2cccc(C(F)(F)F)c2)cc(OC)c1OC 9.64%
COc1ccc(Cn2c(SCC(=O)Nc3ccc(OC)cc3)nc3ccccc32)cc1 4.11%
O=C(COCc1cc(-c2ccco2)on1)Nc1cccc(O)c1 -5.4%
Cn1c(=O)c(=O)n(C)c2cc(S(=O)(=O)CCC(=O)Nc3cccc(C(F)(F)F)c3)ccc21 -1.21%
COc1cc(OC)c(N(C)C(=O)C2CCCN(c3ncnc4c3nc3n4CCCCC3)C2)cc1Cl (centres undefined) 0.0361%
Cc1ccc(-c2nc3c(cnn3-c3ccccc3)c(=O)n2-c2cccc(Cl)c2)cc1 9.77%
CN(C)S(=O)(=O)c1ccc2c(c1)N(CC(=O)N1CCN(c3cccc(Cl)c3)CC1)CCS2 -2.05%
COc1cc(NC(=O)Nc2nnc(N3CCCCCC3)s2)cc(OC)c1 0.778%
CC1CCCN(Cc2c(O)ccc3c(=O)c(Oc4ccc(C(C)(C)C)cc4)c(C(F)(F)F)oc23)C1 (centres undefined) 1.75%
Cc1c(NC(=O)CC(C)C)cccc1-c1nc2cccnc2s1 -0.974%
O=C(CSc1cn(CCNC(=O)c2ccccc2F)c2ccccc12)Nc1ccccc1F -2.33%
COc1cccc(-n2c(SCC(=O)Nc3cccc(Cl)c3)nc3c(oc4ccccc43)c2=O)c1 0.997%
COc1ccc(/C=C\C(=O)NC2CC(=O)N(c3ccc(F)cc3)C2)cc1OC (centres undefined) -0.622%
CCOc1ccccc1CNC(=O)c1ccc(-c2nc(CSc3ccc(C)cc3)c(C)o2)cc1 -1.57%
COc1ccc(-n2c(=O)c3c(C)c(C)sc3n(CC(=O)NCc3ccc(C)cc3)c2=O)c(OC)c1 5.87%
O=C(NCc1ccc(F)cc1)C1CCCN(c2ncnc3onc(-c4ccc(F)cc4)c23)C1 (centres undefined) 4.42%
COc1ccc(Cl)cc1NC(=O)CSC1=Nc2ccccc2C2=NC(CC(=O)NC3CCCCC3)C(=O)N12 (centres undefined) 2.22%
CCOC(=O)CNC(=O)c1ccc(-c2nn(C)c(=O)c3ccccc23)cc1 -12.4%
CCc1ccc(NCc2cc3ccc(OC)cc3n(CC(=O)Nc3ccc(C(C)C)cc3)c2=O)cc1 -18.9%
Cc1ccc(NC(=O)c2ccc3oc(=O)c(S(=O)(=O)c4ccccc4)cc3c2)cc1C 2.06%
Cc1ccc(NC(=O)Cn2nnc(-c3nc(-c4ccncc4)no3)c2N)c(C)c1 -7.2%
COc1ccccc1NC(=O)C1=C(C)Nc2nc(SCc3ccc(Cl)cc3)nn2C1c1ccccc1Cl (centres undefined) -14.3%
CCOC(=O)C1CCN(C(=O)CN2c3ccc(C(C)C)cc3-c3ccccc3S2(=O)=O)CC1 -0.144%
CCOc1ccc(OC(=O)c2cn(-c3cccc(OC)c3)c(=O)c3ccccc23)cc1 0.778%
CC1CCN(C(=O)c2cc3c(=O)n(C)c4ccccc4c3s2)CC1 -16.3%
COc1cc(C2NC(=O)N(C)C3=C2C(=O)N(c2cccc(Cl)c2)C3)ccc1O (centres undefined) 0.539%
CCOC(=O)c1c(NC(C)=O)c2c3c(sc2n1Cc1ccc(Cl)cc1)CCCC3 -0.594%
CC(=O)c1cccc(NC(=O)C2=CC(c3ccc4c(c3)OCO4)=NS(=O)(=O)N2C)c1 -0.155%
CC1CCCCN1CCCNC(=O)c1[nH]c2ccccc2c1Sc1ccc(Cl)cc1 (centres undefined) -2.34%
COc1ccccc1CNC(=O)CCC1N=C2c3ccccc3N=C(SCC(N)=O)N2C1=O (centres undefined) 2.29%
Fc1ccccc1-n1ncc2c1ncn1nc(-c3ccccc3Cl)nc21 3.65%
Cc1cccc(CNC(=O)C(=O)Nc2ccccc2C)c1 2.89%
Cc1ccc(CNC(=O)c2ccc(CSCc3ccccc3Cl)o2)cc1 -1.39%
Cc1cccc(C)c1NC(=O)CSc1nc2ncccc2o1 1.28%
Cc1ccc(S(=O)(=O)NCC(c2ccc(N(C)C)cc2)N2CCc3ccccc32)cc1C (centres undefined) -13.8%
CC(=O)N1CCc2cc(CNC(=O)Nc3cc(Cl)ccc3C)ccc21 0.679%
COc1ccc(Cn2c(CCC(=O)Nc3cccc(OC)c3)nc3cccnc32)cc1 -4.41%
CCc1ccc(CNC(=O)C2CCN(c3nc4ccccc4nc3C(F)(F)F)CC2)cc1 -5.11%
COC(=O)Cc1c(C)c2cc3c(c(C)c2oc1=O)OCN(CCc1ccccc1F)C3 1.46%
CCN1C(=O)c2ccccc2Sc2ccc(NC(=O)Nc3ccccc3OC)cc21 -12.5%
Cc1ccc(NC(=O)c2c(NC(=O)Cc3ccccc3)sc3c2CCC3)cc1 0.401%
COc1ccc2cc(-c3nc(Cl)c4c5c(sc4n3)CCCC5)c(=O)oc2c1 -13.1%
CN(C)c1ccc(-c2nc3cnccn3c2Nc2cccc(C(F)(F)F)c2)cc1 -0.741%
COc1cccc(CNc2nccn(-c3cc(C)cc(C)c3)c2=O)c1 8.21%
Cc1cc2c(cc1S(=O)(=O)CCC(=O)N1CCCC(C)C1)OCC(=O)N2 (centres undefined) -1.63%
CCCCN(CCCNC(=O)c1ccc(Sc2ccc(Cl)cc2)c(NC(C)=O)c1)c1ccccc1 11.2%
Cc1ccc(NC(=O)CSC2=Nc3ccccc3C3=NC(Cc4ccccc4)C(=O)N23)cc1C (centres undefined) 2.41%
Cc1ccc(-n2ncc(C(=O)NCCN3CCOCC3)c2C2CCN(C(=O)OC(C)(C)C)CC2)c(C)c1 0.833%
